Source: the supplement of paper PMC3334620
Whole data set: some 33,000 sequences, median “E-score (-0.5 to 0.5)” near -0.054, cut for the highest 2% near 0.35. The list shows a part of the results.

What follows are sequences tested against T1, Stb5 (UniProt P38699) (assay: PBM E-score (8-mer binding enrichment) (E-score (-0.5 to 0.5)); higher = stronger / more preferred TF binding; most listed sequences are background and not binding sites). Conditions: protein concentration: 200 nM; construct: GST-full length.
T1 sequence: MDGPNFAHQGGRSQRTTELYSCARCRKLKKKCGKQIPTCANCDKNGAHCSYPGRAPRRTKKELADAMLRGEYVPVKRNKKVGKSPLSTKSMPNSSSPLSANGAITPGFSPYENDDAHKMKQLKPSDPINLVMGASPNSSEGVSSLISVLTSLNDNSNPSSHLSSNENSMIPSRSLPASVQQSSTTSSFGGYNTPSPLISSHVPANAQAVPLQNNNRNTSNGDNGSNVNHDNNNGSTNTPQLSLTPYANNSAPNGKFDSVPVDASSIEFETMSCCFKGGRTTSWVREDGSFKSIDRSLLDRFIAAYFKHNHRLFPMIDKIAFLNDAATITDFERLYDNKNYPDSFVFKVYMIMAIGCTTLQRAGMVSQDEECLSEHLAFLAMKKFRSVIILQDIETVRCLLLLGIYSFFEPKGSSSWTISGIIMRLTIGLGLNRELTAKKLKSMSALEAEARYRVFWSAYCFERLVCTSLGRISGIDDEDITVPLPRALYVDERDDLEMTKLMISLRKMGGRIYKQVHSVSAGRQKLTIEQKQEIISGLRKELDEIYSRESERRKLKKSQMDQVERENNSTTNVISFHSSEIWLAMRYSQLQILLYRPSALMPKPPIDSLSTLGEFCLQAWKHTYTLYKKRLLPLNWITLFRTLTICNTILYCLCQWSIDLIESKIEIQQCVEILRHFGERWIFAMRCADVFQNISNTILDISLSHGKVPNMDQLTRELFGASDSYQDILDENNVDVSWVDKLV
Outline: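 Universal all-10-mer Agilent arrays, double-stranded by primer extension on fresh or once-stripped slides, were probed with about 100-200 nM GST-tagged yeast transcription factors made by PURExpress. Fluorescent anti-GST detected bound protein, and masliner normalised the scans. E-scores from the Universal PBM Analysis Suite were given to each ungapped eight-base word pooled with its reverse complement.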

Point of comparison: GATGTGAA, “PBM E-score” value -0.195. Against it:
- AGGCGTCC — higher, -0.0957
- GGCGGAAC — higher, 0.25
- AACAAAAG — higher, -0.054
- GAGCTAGA — higher, -0.0326
- GACTCTTA — higher, -0.0543
- CCCTGAAC — higher, -0.0556
- CTCTGAGA — higher, -0.193
- ACAATCAT — lower, -0.252
- AAGCGAAG — higher, -0.0821
- ATGTCTTG — higher, -0.0666
- AGTGAATG — higher, 0.137
- TACGATCA — lower, -0.323
- GCGCAAGA — higher, -0.138
- ATAGCGCA — higher, -0.0665
- CGTGTATA — higher, 0.111
- CTTACTAA — higher, -0.0783
- GATGAGAC — higher, -0.136
- CGGGTCAG — higher, 0.112
- CGCGAAAG — higher, 0.0124
- CTGCCTTC — lower, -0.21
- GCTCACCC — higher, -0.0631
- AACATCAT — higher, -0.176
- AAGGCCAA — higher, -0.139
- AAGCCCAT — higher, -0.0309
- AGACCTAT — higher, -0.14
- CCTATTGA — lower, -0.265
- AAGAGGAG — higher, -0.135
- ATACCTAG — lower, -0.233
- GAGTTATC — higher, 0.115
- CACCTTTA — higher, -0.129
- AGTGTGTA — higher, -0.136
- CATCCCAC — higher, -0.00896
- GATTCAAA — lower, -0.202
- CCTGACAC — higher, -0.0445
- ACGCCCCG — higher, 0.188
- CGGCGCCA — higher, 0.377
- CAGAGCCG — higher, -0.0711
- GATAGTGC — higher, -0.0287
- ACTAATGG — higher, 0.033
- CAAATTCA — higher, -0.118
- AATGTCCA — higher, -0.0901
- ACACCACT — higher, -0.0749
- CCACCCGC — higher, 0.0272
- GTTTGGGA — lower, -0.2
- AACAAGCT — higher, -0.163
- GTAATTGA — higher, 0.175
- GACCGGGA — higher, 0.248
- CTAGCTAC — lower, -0.214
- ATGGCAAT — lower, -0.208
- GATTTACC — higher, 0.24
- AGCTCACC — higher, -0.0411
- AGTCCGAG — higher, 0.237
- ACAACCAT — higher, 0.0398
- AGCACTGG — higher, -0.105
- TACTACTA — higher, 0.0732
- CCACTGAG — lower, -0.275
- GATCCAAA — lower, -0.253
- ACCGCATC — higher, 0.127
- CGCGATTC — higher, 0.134
- AGATCACC — higher, -0.0404
- AGTACAGA — higher, -0.173
- TACCGGGA — higher, 0.293
- AACATTAA — higher, 0.00533
- ACACTCGT — higher, -0.131
- CTCATCTA — higher, -0.105
- CGAATCAG — lower, -0.224
- CCATTCCA — higher, -0.0271
- CTGGGAGC — higher, -0.0302
- AGGAGGGC — higher, -0.181
- CGGAGACA — higher, 0.398
- CCATACCC — higher, 0.0983
- GGCACCGA — higher, 0.351
- CTGTGGGC — higher, -0.127
- AAAACATC — higher, -0.0882
- CAACAGAG — higher, -0.0253
- AACGCGTC — higher, -0.0218
- GCGAAATA — higher, 0.00371
- GAAGCAAC — higher, -0.137
- CGCGGTGA — higher, 0.359
- ACCCTTAT — higher, -0.149
- CCCCCGGA — higher, 0.166
- AATCGCGC — higher, 0.15
- AAAATTCG — higher, -0.00243
- AGATATCA — higher, -0.00944
- TGGTATAA — higher, 0.0916
- GAACTTCC — higher, 0.0586
- CATAGCGC — higher, 0.161
- CATAACGC — higher, 0.0732
- TAAGCTCA — higher, -0.126
- AAGCTCAG — lower, -0.273
- AAACGAAA — higher, -0.0418
- CGTTTGAG — higher, 0.0195
- CCACACGA — higher, -0.15
- TAGGAACA — higher, -0.128
- GTTCCCCA — higher, -0.0221
- AACGCGTT — higher, -0.102
- AAACTTCC — higher, 0.141
- GATATACC — higher, 0.201
- AAGTTTGC — higher, -0.102
- CGAGAAAG — higher, -0.067
- CGAGCAGA — higher, -0.166
- GCCGCGGC — higher, 0.331
- AACGCACA — higher, -0.0197
- ATCATGGA — lower, -0.291
- ATTTCCTC — higher, -0.068
- CATAGCGG — higher, 0.28
- AACTCGTA — higher, -0.179
- CGCTCTGC — higher, 0.0745
- CATGCGCG — higher, -0.0122
- ATCGATCC — higher, 0.0714
- CTACGAGA — higher, -0.102
- ATGCTTGG — lower, -0.259
- ATTTTTCA — higher, 0.078
- AGAAGAGA — lower, -0.219
- AAGAAGTC — higher, -0.0148
- CCTCCCCG — higher, 0.185
- TAACCGCA — higher, 0.0848
- CGATCAAA — higher, -0.0222
- AGGAATTA — higher, -0.00087
- GGTCCGAC — higher, 0.411
- AATGGAGC — higher, -0.142
- GGGTTAAA — higher, 0.243
- CTTCTGTA — higher, -0.09
- CAGTTTCG — higher, -0.093
- GCGACCGA — higher, 0.132
- AACTTCCC — higher, -0.179
- CAAACAGG — higher, -0.167
- CAGCGGGC — higher, 0.224
- CCGCCCCC — higher, 0.335
- AATACAAG — higher, -0.113
- CAGCTCCA — lower, -0.295
- CTCGAAAC — higher, -0.0616
- CACACGGG — higher, 0.105
- AAGCAAAA — lower, -0.27
- GCTTCATA — higher, 0.0806
- CTGTGGGA — higher, -0.127
- CAAATACA — higher, -0.133
- TAGAGAAA — lower, -0.214
- GCGATAGC — higher, -0.117
- CTAATTTC — higher, -0.126
- ACCAGATG — lower, -0.22
- CCAGACCC — higher, -0.147
- CAGATTCG — higher, 0.0701
- CGGGCCCC — higher, 0.205
- AGGCGCCA — higher, 0.041
- GGTGACAC — higher, 0.215
- CCGAGGGA — higher, -0.0438
- GGGACTCA — higher, -0.0395
- TCGCACGA — higher, -0.0994
- AATCATGA — higher, -0.136
- CCTGCTCC — higher, -0.0646
- AGTTTGGC — higher, -0.0382
- TCAAGACA — higher, -0.128
- CCAAGTCA — higher, -0.0966
- AATAAAAG — higher, 0.0231
- AAAAACTT — higher, 0.0601
- ACCAGCTG — lower, -0.256
- ACTTGCGG — higher, 0.151
- TACGTACA — higher, -0.0556
- AAGTCAGG — higher, -0.0915
- GGCCCCAA — higher, 0.126
- CGCTAGGC — higher, 0.00344
- CATATCAA — higher, -0.0419
- AAGATAGA — higher, -0.123
- CAGGTATA — higher, 0.0512
- AGCCGAAT — higher, -0.0689
- ACGTATTC — higher, 0.0547
- AACGCTGG — higher, -0.137
- CCTTATCG — higher, -0.0308
- GCTTCGCC — higher, 0.065
- AGGTACGC — higher, -0.0909
